Data on 41 molecules can be found in ChEMBL document CHEMBL4888484, “Replenishing the malaria drug discovery pipeline: Screening and hit evaluation of the MMV Hit Generation Library 1 (HGL1) against asexual blood stage Plasmodium falciparum ,using a nano luciferase reporter read-out” (2022).

SMILES strings stand for the structures. The campaign covered roughly 150,000 compounds. About 540 (0.36%) showed an effect of 50% or more. This is one part of the list.

The subject of the assay is Plasmodium falciparum. Nature of the assay: Primary screen in NF54 nanoGlo assay, in single point, at 2uM, 72h; a lower Z score goes with more inhibition. As to conditions: timepoint 72 hour. In kind it is functional, Erythrocyte.
With `COC(=O)[C@@]1(CO)N[C@@H](c2c(F)ccc(F)c2Cl)[C@H]2C(=O)N(C)C(=O)[C@H]21`, the “% Inhibition” value is -7% and the Z score was determined as 1.09.
Turning to `COCCN1CCN2C(=O)[C@H](Cc3ccccc3)N(C(=O)c3ccc(C)s3)C[C@H]2C1=O`, the “% Inhibition” value is on record as -17% and the Z score was determined as 1.51.
Turning to `CN1CCN(C[C@@H]2CN(C(=O)Cc3ccccc3F)C[C@@H]2CO)CC1`, the “% Inhibition” value is recorded as 7% and the Z score is given as -0.64.
On the same counts, the results for `COc1ccc(CCc2nc(-c3ccc(N4CCCC4)cc3)no2)cc1` are 2% and -0.28.
Taken in the same sequence, the figures for `COc1ccc(Cl)cc1NC(=O)Cn1c2c(c(=O)n(C3CCCCC3)c1=O)CCC2` were -9% and 1.62.
As to `Cn1cc(-c2ccc(C(=O)N3C[C@H]4CCC[C@H]4C3)o2)cn1`, the “% Inhibition” value is reported as -20% and the Z score is 1.99.
On the same counts, the results for `CN(C)Cc1csc(CN2CCCC23CCN(c2ccccn2)CC3)c1` are -6% and 0.66.
With `CCC(C)CN1C(=O)C(Cc2ccccc2)NC12CCN(C(=O)c1cccc(OC)c1)CC2` (configuration not stated), the “% Inhibition” value was 28% and the Z score was -3.84.
Taken in the same sequence, the figures for `N#CCCC(C#N)CNCC1CN(C2CC2)CCO1` (configuration not stated) were 0% and -0.02.
Consider `COc1ccc(C(=O)N2CC[C@@](F)(C(=O)NCc3ccccc3)C2)c(C)c1`, for which the “% Inhibition” value is -4% and the Z score is reported as 0.47.
With `Cc1sc(S(=O)(=O)N2CCCC2)cc1NC(=O)c1cccc(N(C)C)c1`, the “% Inhibition” value is -4% and the Z score came out at 0.45.
In the case of `O=C(c1cncc(O)c1)N1CC2(CCCC2)[C@H]1c1ccccc1`, the “% Inhibition” value was 5% and the Z score is given as -0.67.
On the same counts, the results for `Cc1[nH]c2ccccc2c1C1(c2c(C)[nH]c3ccccc23)C(=O)Nc2ccc(Cl)cc21` are 9% and -1.06.
Taken in the same sequence, the figures for `COC[C@@H]1[C@H](NC(=O)c2cccc(-c3ccccc3OC)c2)[C@H]2CCO[C@H]21` were -2% and 0.39.
On the same counts, the results for `COc1ccc(CC(=O)Nc2ncnn2C)cc1` are -9% and 1.66.
As for `Cc1nc(C(=O)Nc2ccc(N3CCOCC3)nc2)c2n1CCCC2`, the “% Inhibition” value is given as -9% and the Z score stood at 0.74.
In the case of `O=C1N[C@@H](C2CCCCC2)C(=O)N[C@H]1c1ccccc1`, the “% Inhibition” value was -9% and the Z score is given as 1.35.
Take `COC(=O)C1CCCCC1S(=O)(=O)NC1CCOC2(CCCC2)C1` (configuration not stated): the “% Inhibition” value was -7% and the Z score was 1.14.
On the same counts, the results for `Cc1ccn(CC(C)NC(=O)c2cn(CC(O)c3cccs3)nn2)n1` (configuration not stated) are -15% and 2.9.
Taken in the same sequence, the figures for `CN(C)C(=O)C1CCCC(NS(=O)(=O)c2ccc3c(c2)OCCO3)C1` (configuration not stated) were 6% and -0.94.
Taken in the same sequence, the figures for `COc1ccc(C2Nc3ccc(C)cc3[C@H]3OCCC[C@@H]23)cc1C` (some centres not stated) were -12% and 1.68.
Turning to `CCOC(=O)c1c(Cl)c2ncc(S(=O)(=O)N(C)C)cc2n1C`, the “% Inhibition” value is -9% and the Z score amounted to 0.91.
On the same counts, the results for `C=CCc1c(C)nc(N)nc1NC[C@H]1CCCN(S(C)(=O)=O)C1` are -1% and 0.17.
Taken in the same sequence, the figures for `O=C(NCC(=O)N1CCC[C@@]12CCOC2=O)c1cccc(Cl)c1` were 0% and 0.04.
On the same counts, the results for `C[C@H](OC(=O)c1ccc2[nH]ncc2c1)c1nc2ccccc2n1C(F)F` are -12% and 1.24.
Take `OCC1(CN2CCCC2)CCN(Cc2ccc(Cl)cc2)CC1`: the “% Inhibition” value is 2% and the Z score is recorded as -0.36.
Taken in the same sequence, the figures for `Cn1ccc(CCNC(=O)[C@H]2CC[C@H](Nc3cnccn3)CC2)n1` were -3% and 0.55.
Taken in the same sequence, the figures for `CN(CCCc1nccn1C)c1cc([C@H]2C[C@@H](O)C2)nc(N)n1` were -8% and 1.38.
On the same counts, the results for `CC(C)(C)c1cnc(Cn2nc3ccccn3c2=O)o1` are 1% and -0.22.
For the molecule `Cc1cc(OC2CN(C(=O)Cc3cccc(C(F)(F)F)c3)C2)cc(=O)n1C1CC1`, the “% Inhibition” value is on record as -4% and the Z score was 0.46.
On the same counts, the results for `COCc1ccc(C(=O)N2CC[C@@]3(CCCN(Cc4cccc(C)c4)C3)C2)s1` are -14% and 2.26.
On the same counts, the results for `CN1CCN(c2ncccc2CNC(=O)c2ccc3c(N)ncnc3c2)CC1` are 0% and -0.06.
On the same counts, the results for `Cc1csc(C(C)NC(=O)NCC(C)N(C)Cc2ccccc2)n1` (configuration not stated) are 16% and -2.24.
Consider `CCC(=O)Nc1c(C)noc1/C=C\c1ccc(S(=O)(=O)Nc2ccc(C#N)cc2)cc1`, for which the “% Inhibition” value was -19% and the Z score was 2.68.
On the same counts, the results for `O=C(c1ccc(N2CCC2)nc1)N1CCOC[C@@H]1Cc1ccccc1` are -2% and 0.19.
On the same counts, the results for `CC(=O)Nc1nc(C(=O)Nc2nc(-c3ccc(C)cc3)cs2)cs1` are 10% and -1.31.
Taken in the same sequence, the figures for `CCOCCC1(CNC(=O)C(C)(C)[C@H]2CCCN(C(=O)OC(C)(C)C)C2)CCC1` were 13% and -1.19.
For `CCCN(C(=O)COc1cccc2c1OC(C)(C)C2)C1CCN(C(=O)c2ccccc2)CC1`, the “% Inhibition” value amounted to 3% and the Z score is reported as -0.4.
For `COC[C@@H](c1ccnn1C)n1cc(-c2oc3ccc(C)cc3c2C)nn1`, the “% Inhibition” value is recorded as -14% and the Z score was determined as 2.68.
With `Cc1ccccc1[C@H]1CN(C(=O)CCc2c(C)noc2C)C[C@@H]1C(=O)O`, the “% Inhibition” value is on record as -11% and the Z score is reported as 1.25.
`CC(C)(C)OC(=O)N1CCC2(CO)CC12` (configuration not stated): the “% Inhibition” value is given as -11% and the Z score turned out to be 1.22.
